Reference: article PMC8161014
No constants are given. Whether binding was seen depends on the method and setting. In cells and extracts the contact can be indirect. Some results given as binding are weak or reduced against the parent protein; the word gives no strength. For some assays here: Sequences can lack the tags named with a protein.

Amino acid sequences for entries named in this document (tags omitted). A change or cut given only in a name is not applied to a line headed by its entry. Chains listed by the source or under a name are the forms on record and can include a tag or linker. Residues count along the entry.
StrepII-FLAG-tagged DCAF12 (∆1–11) (Q5T6F0, residues 12-453): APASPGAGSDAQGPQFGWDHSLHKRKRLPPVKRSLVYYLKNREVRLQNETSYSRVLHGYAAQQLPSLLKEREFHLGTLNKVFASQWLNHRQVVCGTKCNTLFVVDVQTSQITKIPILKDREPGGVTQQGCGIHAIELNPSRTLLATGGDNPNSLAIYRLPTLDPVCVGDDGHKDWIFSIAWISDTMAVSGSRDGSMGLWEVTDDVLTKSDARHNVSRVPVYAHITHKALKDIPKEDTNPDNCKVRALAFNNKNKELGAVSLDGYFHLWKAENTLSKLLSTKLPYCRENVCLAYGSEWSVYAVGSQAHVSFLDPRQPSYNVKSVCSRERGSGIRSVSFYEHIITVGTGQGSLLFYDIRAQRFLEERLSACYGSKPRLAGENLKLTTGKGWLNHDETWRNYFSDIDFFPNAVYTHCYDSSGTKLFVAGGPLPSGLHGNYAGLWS
StrepII-FLAG-tagged DCAF12 (∆1–38) (Q5T6F0, residues 39-453): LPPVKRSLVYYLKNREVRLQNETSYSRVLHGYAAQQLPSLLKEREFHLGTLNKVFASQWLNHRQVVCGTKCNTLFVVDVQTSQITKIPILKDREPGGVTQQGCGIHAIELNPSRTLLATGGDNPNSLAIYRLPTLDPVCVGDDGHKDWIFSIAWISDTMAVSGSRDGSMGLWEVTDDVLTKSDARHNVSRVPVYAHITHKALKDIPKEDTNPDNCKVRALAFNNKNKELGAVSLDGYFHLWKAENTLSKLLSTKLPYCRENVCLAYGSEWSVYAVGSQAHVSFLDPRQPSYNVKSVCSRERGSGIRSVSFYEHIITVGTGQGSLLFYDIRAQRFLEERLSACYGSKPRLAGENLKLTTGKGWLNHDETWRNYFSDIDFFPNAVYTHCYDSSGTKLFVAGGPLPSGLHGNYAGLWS
UniProt Q5VW00: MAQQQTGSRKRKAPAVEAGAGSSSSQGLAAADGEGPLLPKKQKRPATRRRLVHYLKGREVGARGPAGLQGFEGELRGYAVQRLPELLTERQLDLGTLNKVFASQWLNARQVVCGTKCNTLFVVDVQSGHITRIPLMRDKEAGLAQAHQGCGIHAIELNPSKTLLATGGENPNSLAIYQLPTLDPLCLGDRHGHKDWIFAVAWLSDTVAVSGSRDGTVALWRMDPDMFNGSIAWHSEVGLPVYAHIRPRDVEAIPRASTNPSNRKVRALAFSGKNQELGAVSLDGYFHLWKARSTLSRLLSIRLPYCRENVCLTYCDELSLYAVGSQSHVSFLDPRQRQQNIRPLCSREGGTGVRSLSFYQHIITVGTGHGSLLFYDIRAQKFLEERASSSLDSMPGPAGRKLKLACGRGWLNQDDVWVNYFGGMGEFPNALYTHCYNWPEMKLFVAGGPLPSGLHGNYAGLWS
UniProt Q5VU92: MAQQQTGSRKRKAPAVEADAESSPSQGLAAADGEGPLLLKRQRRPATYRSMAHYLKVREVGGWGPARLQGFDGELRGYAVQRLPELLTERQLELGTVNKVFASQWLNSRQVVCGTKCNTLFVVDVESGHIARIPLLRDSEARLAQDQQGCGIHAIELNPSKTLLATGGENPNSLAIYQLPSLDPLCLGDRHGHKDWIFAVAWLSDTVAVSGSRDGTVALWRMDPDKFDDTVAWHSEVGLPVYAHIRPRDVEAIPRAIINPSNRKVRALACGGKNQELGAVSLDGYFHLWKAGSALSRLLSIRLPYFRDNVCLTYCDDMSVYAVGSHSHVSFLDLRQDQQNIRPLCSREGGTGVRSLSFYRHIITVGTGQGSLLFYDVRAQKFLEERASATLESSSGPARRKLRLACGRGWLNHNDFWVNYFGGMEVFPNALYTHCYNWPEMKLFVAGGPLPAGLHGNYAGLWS

Columns and labels:
[1] = molecular target: StrepII-FLAG-tagged DCAF12 (∆1–38) (human) (UniProt Q5T6F0); assay: co-IP; MOV10 co-precipitated with SF-DCAF12^ΔNLSs in several cancer cell lines (Figure S1a,b,c; legend not shown)
[2] = molecular target: StrepII-FLAG-tagged DCAF12L2 (human) (UniProt Q5VW00); assay: pull-down; StrepII-FLAG-tagged substrate receptors transfected into HEK293T, MLN4924 for 6 h before harvesting; whole-cell lysates subjected to affinity purification with Strep-TactinXT resin; eluates immunoblotted for endogenous proteins
[3] = molecular target: StrepII-FLAG-tagged DCAF12 (∆1–11) (human) (UniProt Q5T6F0); assay: as above
[4] = molecular target: StrepII-FLAG-tagged DCAF12 (WT) (human) (UniProt Q5T6F0); assay: as above
[5] = molecular target: StrepII-FLAG-tagged DCAF12L1 (human) (UniProt Q5VU92); assay: as above
[6] = molecular target: StrepII-FLAG-tagged DCAF12 (∆1–38) (human) (UniProt Q5T6F0); assay: as above
[7] = molecular target: StrepII-FLAG-tagged DCAF12 (WT) (human) (UniProt Q5T6F0); assay: pull-down; HEK293 cells with doxycycline-inducible HA-tagged MOV10 (WT) or (E1002X) transfected with StrepII-FLAG-tagged DCAF12 (WT) or (∆1–38); DOX 100 ng/mL 24 h, MLN4924 for the last 6 h; affinity purification of whole-cell lysates, immunoblot
[8] = molecular target: StrepII-FLAG-tagged DCAF12 (∆1–38) (human) (UniProt Q5T6F0); assay: as above

B1: endogenous MOV10 (protein, UniProt Q9HCE1 1-1003)
chain: MPSKFSCRQLREAGQCFESFLVVRGLDMETDRERLRTIYNRDFKISFGTPAPGFSSMLYGMKIANLAYVTKTRVRFFRLDRWADVRFPEKRRMKLGSDISKHHKSLLAKIFYDRAEYLHGKHGVDVEVQGPHEARDGQLLIRLDLNRKEVLTLRLRNGGTQSVTLTHLFPLCRTPQFAFYNEDQELPCPLGPGECYELHVHCKTSFVGYFPATVLWELLGPGESGSEGAGTFYIARFLAAVAHSPLAAQLKPMTPFKRTRITGNPVVTNRIEEGERPDRAKGYDLELSMALGTYYPPPRLRQLLPMLLQGTSIFTAPKEIAEIKAQLETALKWRNYEVKLRLLLHLEELQMEHDIRHYDLESVPMTWDPVDQNPRLLTLEVPGVTESRPSVLRGDHLFALLSSETHQEDPITYKGFVHKVELDRVKLSFSMSLLSRFVDGLTFKVNFTFNRQPLRVQHRALELTGRWLLWPMLFPVAPRDVPLLPSDVKLKLYDRSLESNPEQLQAMRHIVTGTTRPAPYIIFGPPGTGKTVTLVEAIKQVVKHLPKAHILACAPSNSGADLLCQRLRVHLPSSIYRLLAPSRDIRMVPEDIKPCCNWDAKKGEYVFPAKKKLQEYRVLITTLITAGRLVSAQFPIDHFTHIFIDEAGHCMEPESLVAIAGLMEVKETGDPGGQLVLAGDPRQLGPVLRSPLTQKHGLGYSLLERLLTYNSLYKKGPDGYDPQFITKLLRNYRSHPTILDIPNQLYYEGELQACADVVDRERFCRWAGLPRQGFPIIFHGVMGKDEREGNSPSFFNPEEAATVTSYLKLLLAPSSKKGKARLSPRSVGVISPYRKQVEKIRYCITKLDRELRGLDDIKDLKVGSVEEFQGQERSVILISTVRSSQSFVQLDLDFNLGFLKNPKRFNVAVTRAKALLIIVGNPLLLGHDPDWKVFLEFCKENGGYTGCPFPAKLDLQQGQNLLQGLSKLSPSTSGPHSHDYLPQEREGEGGLSLQVEPEWRNEL
[1]
  binding: binds
[2]
  binding: no binding
[3]
  binding: binds
[4]
  binding: binds
[5]
  binding: no binding
[6]
  binding: binds

B2: HA-tagged MOV10 (E1002X) (domain or fragment, UniProt Q9HCE1 1-1001)
chain: MPSKFSCRQLREAGQCFESFLVVRGLDMETDRERLRTIYNRDFKISFGTPAPGFSSMLYGMKIANLAYVTKTRVRFFRLDRWADVRFPEKRRMKLGSDISKHHKSLLAKIFYDRAEYLHGKHGVDVEVQGPHEARDGQLLIRLDLNRKEVLTLRLRNGGTQSVTLTHLFPLCRTPQFAFYNEDQELPCPLGPGECYELHVHCKTSFVGYFPATVLWELLGPGESGSEGAGTFYIARFLAAVAHSPLAAQLKPMTPFKRTRITGNPVVTNRIEEGERPDRAKGYDLELSMALGTYYPPPRLRQLLPMLLQGTSIFTAPKEIAEIKAQLETALKWRNYEVKLRLLLHLEELQMEHDIRHYDLESVPMTWDPVDQNPRLLTLEVPGVTESRPSVLRGDHLFALLSSETHQEDPITYKGFVHKVELDRVKLSFSMSLLSRFVDGLTFKVNFTFNRQPLRVQHRALELTGRWLLWPMLFPVAPRDVPLLPSDVKLKLYDRSLESNPEQLQAMRHIVTGTTRPAPYIIFGPPGTGKTVTLVEAIKQVVKHLPKAHILACAPSNSGADLLCQRLRVHLPSSIYRLLAPSRDIRMVPEDIKPCCNWDAKKGEYVFPAKKKLQEYRVLITTLITAGRLVSAQFPIDHFTHIFIDEAGHCMEPESLVAIAGLMEVKETGDPGGQLVLAGDPRQLGPVLRSPLTQKHGLGYSLLERLLTYNSLYKKGPDGYDPQFITKLLRNYRSHPTILDIPNQLYYEGELQACADVVDRERFCRWAGLPRQGFPIIFHGVMGKDEREGNSPSFFNPEEAATVTSYLKLLLAPSSKKGKARLSPRSVGVISPYRKQVEKIRYCITKLDRELRGLDDIKDLKVGSVEEFQGQERSVILISTVRSSQSFVQLDLDFNLGFLKNPKRFNVAVTRAKALLIIVGNPLLLGHDPDWKVFLEFCKENGGYTGCPFPAKLDLQQGQNLLQGLSKLSPSTSGPHSHDYLPQEREGEGGLSLQVEPEWRN
[7]
  binding: no binding
[8]
  binding: no binding
